Here are results for 18 sequences from PMC12820563, “FoxP3 forms a head-to-head dimer in vivo and stabilizes its multimerization on adjacent microsatellites”.

Some of the results follow.

The assay concerns the target T1, MBP-FoxP1dN (Mus musculus, UniProt P58462 326-579).
T1 sequence: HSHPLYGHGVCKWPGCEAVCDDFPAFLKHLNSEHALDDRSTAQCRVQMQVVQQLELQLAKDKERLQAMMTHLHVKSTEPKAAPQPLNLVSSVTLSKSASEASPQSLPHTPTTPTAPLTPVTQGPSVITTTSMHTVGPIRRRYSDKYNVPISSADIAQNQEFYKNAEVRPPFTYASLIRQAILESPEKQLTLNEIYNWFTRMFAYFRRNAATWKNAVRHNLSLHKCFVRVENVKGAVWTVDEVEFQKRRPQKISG
Put plainly: PD-seq (MBP pull-down with sequencing); 20 mM Tris-HCl pH 7.5, 100 mM NaCl, 1.5 mM MgCl2, 0.4 uM protein, 0.1 uM dsDNA library, 30 min, room temperature, amylose pull-down; high values mean tight binding. The following applies: protein: recombinant; tags: His6-MBP; chain copies: 2; dsDNA, one strand shown. In outline:
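Binding is the reads-per-million enrichment of pull-down relative to input, pooled across replicates. For this, 0.4 µM His6-MBP-tagged mouse FoxP3 or FoxP1 fragment lacking the N-terminus, made in E. coli, was incubated with 0.1 µM Klenow-filled double-stranded degenerate DNA library for 30 min at room temperature in Tris pH 7.5 buffer with NaCl and MgCl2. Complexes bound to amylose resin were washed three times before proteinase K released the DNA for PCR barcoding and Illumina sequencing.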
Regarding “GATGATTGTTCTCCCAGCTGATGAATTAGCTGCATCGAGTAAACAAATTTTCCTAATCTTTCTGTTCAAGCGCCATCTAC”, the binding signal is 1.23 RPM ratio (pull-down/input).

As to “GATGATTGTTCTCCCAGCTGATGAATTTAATCCCTCGAGTAAACAAATTTTCCTAATCTTTCTGTTCAAGCGCCATCTAC”, the binding signal is 0.85 RPM ratio (pull-down/input).

Regarding “GATGATTGTTCTCCCAGCTGATGAATTCTCCTCTTCGAGTAAACAAATTTTCCTAATCTTTCTGTTCAAGCGCCATCTAC”, the binding signal is 0.801 RPM ratio (pull-down/input).

On to “GATGATTGTTCTCCCAGCTGATGAATTCGTGATGTCGAGTAAACAAATTTTCCTAATCTTTCTGTTCAAGCGCCATCTAC”, for which the binding signal was 1.15 RPM ratio (pull-down/input).

Regarding “GATGATTGTTCTCCCAGCTGATGAATTGACAGCGTCGAGTAAACAAATTTTCCTAATCTTTCTGTTCAAGCGCCATCTAC”, the binding signal was 1.09 RPM ratio (pull-down/input).

Consider “GATGATTGTTCTCCCAGCTGATGAATTCCGGTTTTCGAGTAAACAAATTTTCCTAATCTTTCTGTTCAAGCGCCATCTAC”, for which the binding signal is 0.893 RPM ratio (pull-down/input).

“GATGATTGTTCTCCCAGCTGATGAATTCCGAATTTCGAGTAAACAAATTTTCCTAATCTTTCTGTTCAAGCGCCATCTAC”: the binding signal was 0.833 RPM ratio (pull-down/input).

As for “GATGATTGTTCTCCCAGCTGATGAATTATGCTCATCGAGTAAACAAATTTTCCTAATCTTTCTGTTCAAGCGCCATCTAC”, the binding signal was 1.09 RPM ratio (pull-down/input).

For the sequence “GATGATTGTTCTCCCAGCTGATGAATTTTACTGCTCGAGTAAACAAATTTTCCTAATCTTTCTGTTCAAGCGCCATCTAC”, the binding signal is 0.888 RPM ratio (pull-down/input).

For “GATGATTGTTCTCCCAGCTGATGAATTGGTTGTCTCGAGTAAACAAATTTTCCTAATCTTTCTGTTCAAGCGCCATCTAC”, the binding signal is 1.05 RPM ratio (pull-down/input).

As for “GATGATTGTTCTCCCAGCTGATGAATTCCGCACATCGAGTAAACAAATTTTCCTAATCTTTCTGTTCAAGCGCCATCTAC”, the binding signal is 0.918 RPM ratio (pull-down/input).

Regarding “GATGATTGTTCTCCCAGCTGATGAATTCGAAATATCGAGTAAACAAATTTTCCTAATCTTTCTGTTCAAGCGCCATCTAC”, the binding signal is 0.966 RPM ratio (pull-down/input).

For the sequence “GATGATTGTTCTCCCAGCTGATGAATTTATCATTTCGAGTAAACAAATTTTCCTAATCTTTCTGTTCAAGCGCCATCTAC”, the binding signal was 1.29 RPM ratio (pull-down/input).

Regarding “GATGATTGTTCTCCCAGCTGATGAATTCTTTCGCTCGAGTAAACAAATTTTCCTAATCTTTCTGTTCAAGCGCCATCTAC”, the binding signal is 0.866 RPM ratio (pull-down/input).

On to “GATGATTGTTCTCCCAGCTGATGAATTGCCAACATCGAGTAAACAAATTTTCCTAATCTTTCTGTTCAAGCGCCATCTAC”, for which the binding signal was 1.34 RPM ratio (pull-down/input).

On to “GATGATTGTTCTCCCAGCTGATGAATTCGAGCTATCGAGTAAACAAATTTTCCTAATCTTTCTGTTCAAGCGCCATCTAC”, for which the binding signal is 0.841 RPM ratio (pull-down/input).

On to “GATGATTGTTCTCCCAGCTGATGAATTACCACGATCGAGTAAACAAATTTTCCTAATCTTTCTGTTCAAGCGCCATCTAC”, for which the binding signal was 0.951 RPM ratio (pull-down/input).

“GATGATTGTTCTCCCAGCTGATGAATTTGAATTATCGAGTAAACAAATTTTCCTAATCTTTCTGTTCAAGCGCCATCTAC”: the binding signal was 0.969 RPM ratio (pull-down/input).
